Source: the supplement of paper PMC8728848
The other results are listed elsewhere or left out.

Columns and labels:
Test in all cases: glycan array binding signal (z-score within array); higher = stronger binding
Settings in all cases: glycan notation: IUPAC condensed, linker removed
[1] = target: Gal(b1-3)GlcNAc(b1-6)[Gal(b1-3)]GalNAc
Summary of the method: (§1)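 The Consortium for Functional Glycomics database supplied 3228 glycan arrays, of which those lacking an available protein sequence were dropped. The binding signal, a within-array Z-score, was averaged across arrays of the same protein sequence and across linkers. Negative scores can be read as non-binding.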

Gal(b1-3)GlcNAc6S = target: Gal(b1-3)GlcNAc6S
Summary of the method: as §1

[2] = target: Gal(b1-3)[Fuc(a1-4)]GlcNAc
Summary of the method: as §1

[3] = target: Gal(b1-3)[Fuc(a1-4)]GlcNAc(b1-2)Man
Summary of the method: as §1

[4] = target: Gal(b1-3)[Fuc(a1-4)]GlcNAc(b1-2)Man(a1-3)[Gal(b1-3)[Fuc(a1-4)]GlcNAc(b1-2)Man(a1-6)]Man(b1-4)GlcNAc(b1-4)[Fuc(a1-6)]GlcNAc
Summary of the method: as §1

[5] = target: Gal(b1-3)[Fuc(a1-4)]GlcNAc(b1-3)Gal(b1-3)[Fuc(a1-4)]GlcNAc
Summary of the method: as §1

[6] = target: Gal(b1-3)[Fuc(a1-4)]GlcNAc(b1-3)Gal(b1-4)[Fuc(a1-3)]GlcNAc
Summary of the method: as §1

[7] = target: Gal(b1-3)[Fuc(a1-4)]GlcNAc(b1-6)GalNAc
Summary of the method: as §1

[8] = target: Gal(b1-3)[GlcNAc(b1-6)]GalNAc
Summary of the method: as §1

[9] = target: Gal(b1-3)[Neu5Ac(a2-6)]GalNAc
Summary of the method: as §1

[10] = target: Gal(b1-3)[Neu5Ac(a2-6)]GlcNAc(b1-4)Gal(b1-4)Glc
Summary of the method: as §1

[11] = target: Gal(b1-3)[Neu5Ac(b2-6)]GalNAc
Summary of the method: as §1

Gal(b1-4)Gal = target: Gal(b1-4)Gal
Summary of the method: as §1

[12] = target: Gal(b1-4)GalNAc(a1-3)[Fuc(a1-2)]Gal(b1-4)GlcNAc
Summary of the method: as §1

[13] = target: Gal(b1-4)GalNAc(b1-3)[Fuc(a1-2)]Gal(b1-4)GlcNAc
Summary of the method: as §1

Gal(b1-4)Glc = target: Gal(b1-4)Glc
Summary of the method: as §1

Gal(b1-4)Glc6S = target: Gal(b1-4)Glc6S
Summary of the method: as §1

Gal(b1-4)GlcNAc = target: Gal(b1-4)GlcNAc
Summary of the method: as §1

[14] = target: Gal(b1-4)GlcNAc(a1-6)Gal(b1-4)GlcNAc
Summary of the method: as §1

Gal(b1-4)GlcNAc(b1-2)Man = target: Gal(b1-4)GlcNAc(b1-2)Man
Summary of the method: as §1

[15] = target: Gal(b1-4)GlcNAc(b1-2)Man(a1-3)Man(b1-4)GlcNAc(b1-4)GlcNAc
Summary of the method: as §1

[16] = target: Gal(b1-4)GlcNAc(b1-2)Man(a1-3)[Gal(b1-4)GlcNAc(b1-2)Man(a1-6)]Man(b1-4)GlcNAc(b1-4)GlcNAc
Summary of the method: as §1

[17] = target: Gal(b1-4)GlcNAc(b1-2)Man(a1-3)[Gal(b1-4)GlcNAc(b1-2)Man(a1-6)]Man(b1-4)GlcNAc(b1-4)[Fuc(a1-6)]GlcNAc
Summary of the method: as §1

[18] = target: Gal(b1-4)GlcNAc(b1-2)Man(a1-3)[Gal(b1-4)GlcNAc(b1-2)Man(a1-6)][Gal(b1-4)GlcNAc(b1-4)]Man(b1-4)GlcNAc(b1-4)[Fuc(a1-6)]GlcNAc
Summary of the method: as §1

[19] = target: Gal(b1-4)GlcNAc(b1-2)Man(a1-3)[Gal(b1-4)GlcNAc(b1-2)Man(a1-6)][GlcNAc(b1-4)]Man(b1-4)GlcNAc(b1-4)[Fuc(a1-6)]GlcNAc
Summary of the method: as §1

[20] = target: Gal(b1-4)GlcNAc(b1-2)Man(a1-3)[GlcNAc(b1-2)Man(a1-6)]Man(b1-4)GlcNAc(b1-4)GlcNAc
Summary of the method: as §1

[21] = target: Gal(b1-4)GlcNAc(b1-2)Man(a1-3)[GlcNAc(b1-4)][Gal(b1-4)GlcNAc(b1-2)Man(a1-6)]Man(b1-4)GlcNAc(b1-4)GlcNAc
Summary of the method: as §1

[22] = target: Gal(b1-4)GlcNAc(b1-2)Man(a1-3)[Man(a1-6)]Man(b1-4)GlcNAc(b1-4)GlcNAc
Summary of the method: as §1

[23] = target: Gal(b1-4)GlcNAc(b1-2)Man(a1-6)Man(b1-4)GlcNAc(b1-4)GlcNAc
Summary of the method: as §1

[24] = target: Gal(b1-4)GlcNAc(b1-2)Man(a1-6)[GlcNAc(b1-2)Man(a1-3)]Man(b1-4)GlcNAc(b1-4)GlcNAc
Summary of the method: as §1

[25] = target: Gal(b1-4)GlcNAc(b1-2)Man(a1-6)[Man(a1-3)]Man(b1-4)GlcNAc(b1-4)GlcNAc
Summary of the method: as §1

[26] = target: Gal(b1-4)GlcNAc(b1-2)[Gal(b1-4)GlcNAc(b1-4)]Man(a1-3)[Gal(b1-4)GlcNAc(b1-2)Man(a1-6)]Man(b1-4)GlcNAc(b1-4)GlcNAc
Summary of the method: as §1

[27] = target: Gal(b1-4)GlcNAc(b1-2)[Gal(b1-4)GlcNAc(b1-4)]Man(a1-3)[Gal(b1-4)GlcNAc(b1-2)[Gal(b1-4)GlcNAc(b1-6)]Man(a1-6)]Man(b1-4)GlcNAc(b1-4)GlcNAc
Summary of the method: as §1

[28] = target: Gal(b1-4)GlcNAc(b1-2)[Gal(b1-4)GlcNAc(b1-4)]Man(a1-3)[GlcNAc(b1-4)][Gal(b1-4)GlcNAc(b1-2)Man(a1-6)]Man(b1-4)GlcNAc(b1-4)GlcNAc
Summary of the method: as §1

[29] = target: Gal(b1-4)GlcNAc(b1-2)[Gal(b1-4)GlcNAc(b1-4)]Man(a1-3)[GlcNAc(b1-4)][Gal(b1-4)GlcNAc(b1-2)[Gal(b1-4)GlcNAc(b1-6)]Man(a1-6)]Man(b1-4)GlcNAc(b1-4)GlcNAc
Summary of the method: as §1

[30] = target: Gal(b1-4)GlcNAc(b1-2)[Gal(b1-4)GlcNAc(b1-6)]Man(a1-6)[Gal(b1-4)GlcNAc(b1-2)Man(a1-3)]Man(b1-4)GlcNAc(b1-4)GlcNAc
Summary of the method: as §1

[31] = target: Gal(b1-4)GlcNAc(b1-2)[Gal(b1-4)GlcNAc(b1-6)]Man(a1-6)[Gal(b1-4)GlcNAc(b1-2)Man(a1-3)]Man(b1-4)GlcNAc(b1-4)[Fuc(a1-6)]GlcNAc
Summary of the method: as §1

B1: PX15618B-bfa-464-25-464 (Bacteroides fragilis) (protein)
chain: DQEPPLYVNENDIFTSPTRIEATLNGLYAAIKNTGTKSLMGGKSYLVFDNRGDDVINISNNLVTLFNTYNMNVGITDAENADTWTYAYLAINKVNTFLQSLEGAREVAGENYDRYVQEAKFVRALAYYYLNNLYPTPYSVNPDAKSVPLRLTAEAGTENNNMPRSTVKQIYEHILSDLENISALDTEVNTYTGVTHATQAAANMLKMRVYMAMNEWDKAITAGELVTGYSLPEDVTLIYKAPYFSQESIFSLPMADTNIPNTQQSLAEYYYDGKIMLIDTKSGIMSKPDYSLATDKRIIAFKGEKDLLMKFTDAKTKLQWVPIFRYAETLLDLAECYANKAGGEATAKSLLKQVRGRSVDAATDPLNIDNLSGDALKEAIYNEKRLEFIGEGIRGIDIMRRGEHFIKVGENETINVGPSDEKYTWPIPQVELLLNKDINK
glycan array binding signal (z-score) [1]: 0.483
glycan array binding signal (z-score) (Gal(b1-3)GlcNAc6S): -0.229
glycan array binding signal (z-score) [2]: -0.032
glycan array binding signal (z-score) [3]: -0.546
glycan array binding signal (z-score) [4]: 0.153
glycan array binding signal (z-score) [5]: -0.72
glycan array binding signal (z-score) [6]: -0.681
glycan array binding signal (z-score) [7]: -0.13
glycan array binding signal (z-score) [8]: -0.464
glycan array binding signal (z-score) [9]: -0.249
glycan array binding signal (z-score) [10]: 0.221
glycan array binding signal (z-score) [11]: -0.017
glycan array binding signal (z-score) (Gal(b1-4)Gal): -0.207
glycan array binding signal (z-score) [12]: 0.272
glycan array binding signal (z-score) [13]: -0.753
glycan array binding signal (z-score) (Gal(b1-4)Glc): -0.462
glycan array binding signal (z-score) (Gal(b1-4)Glc6S): 0.136
glycan array binding signal (z-score) (Gal(b1-4)GlcNAc): -0.484
glycan array binding signal (z-score) [14]: -0.333
glycan array binding signal (z-score) (Gal(b1-4)GlcNAc(b1-2)Man): -0.15
glycan array binding signal (z-score) [15]: -0.16
glycan array binding signal (z-score) [16]: -0.653
glycan array binding signal (z-score) [17]: 1.02
glycan array binding signal (z-score) [18]: 0.184
glycan array binding signal (z-score) [19]: 0.173
glycan array binding signal (z-score) [20]: -0.294
glycan array binding signal (z-score) [21]: -0.115
glycan array binding signal (z-score) [22]: -0.774
glycan array binding signal (z-score) [23]: -0.444
glycan array binding signal (z-score) [24]: -0.423
glycan array binding signal (z-score) [25]: 0.248
glycan array binding signal (z-score) [26]: 0.511
glycan array binding signal (z-score) [27]: -0.527
glycan array binding signal (z-score) [28]: 0.441
glycan array binding signal (z-score) [29]: -0.722
glycan array binding signal (z-score) [30]: 2.66
glycan array binding signal (z-score) [31]: 1.01
